# Results: the supplement of paper PMC8728848
# The other results are listed elsewhere or left out.
# B1: Surfactant Protein D (Human); Neck + Carbohydrate Recognition Domain (NCRD) (Homo sapiens) (protein)
# chain: MLLFLLSALVLLTQPLGYLEAEMKTYSHRTMPSACTLVMCSSVESGLPGRDRDGREGPRGEKGDPGLPGAAGQAGMPGQAGPVGPKGDNGSVGEPGPKGDTGPSGPPGPPGVPGPAGREGALGKQGNIGPQGKPGPKGEAGPKGEVGAPGMQGSAGARGLAGPKGERGVPGERGVPGNTGAAGSAGAMGPQGSPGARGPPGLKGDKGIPGDKGAKGESGLPDVASLRQQVEALQGQVQHLQAAFSQYKKVELFPNGQSVGEKIFKTAQFVKPFTEAQLLCTQAGGQLASPRSAAENAALQQLVVAKNEAAFLSMTDSKTEGKFTYPTGESLVYSNWAPGEPNDDGGSEDCVEIFTNGKWNDRACGEKALVVCEF
# Key:
# Experiment in all cases: glycan array binding signal (z-score within array); higher = stronger binding
# Conditions in all cases: glycan notation: IUPAC condensed, linker removed; mutation: R349A
# [1] = target: Gal(b1-3)[Fuc(a1-4)]GlcNAc(b1-3)Gal(b1-4)[Fuc(a1-3)]GlcNAc
# Method in brief: (§1)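 Glycan array binding is given as a within-array Z-score, which can be read as non-binding when negative. The arrays, 3228 of them, came from the Consortium for Functional Glycomics database and were retained only where the protein sequence was available. Z-scores were averaged across arrays of the same protein sequence at different concentrations or buffers and across linkers.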
# [2] = target: Gal(b1-3)[GlcNAc(b1-6)]GalNAc
# Method in brief: as §1
# [3] = target: Gal(b1-3)[Neu5Ac(a2-6)]GalNAc
# Method in brief: as §1
# [4] = target: Gal(b1-3)[Neu5Ac(a2-6)]GlcNAc(b1-6)Gal(b1-4)Glc
# Method in brief: as §1
# [5] = target: Gal(b1-3)[Neu5Ac(b2-6)]GalNAc
# Method in brief: as §1
# [6] = target: Gal(b1-4)GalNAc(a1-3)[Fuc(a1-2)]Gal(b1-4)GlcNAc
# Method in brief: as §1
# [7] = target: Gal(b1-4)GalNAc(b1-3)[Fuc(a1-2)]Gal(b1-4)GlcNAc
# Method in brief: as §1
# [8] = target: Gal(b1-4)Glc
# Method in brief: as §1
# [9] = target: Gal(b1-4)Glc6S
# Method in brief: as §1
# [10] = target: Gal(b1-4)GlcNAc
# Method in brief: as §1
# [11] = target: Gal(b1-4)GlcNAc(a1-6)Gal(b1-4)GlcNAc
# Method in brief: as §1
# [12] = target: Gal(b1-4)GlcNAc(b1-2)Man(a1-3)[Gal(b1-4)GlcNAc(b1-2)Man(a1-6)]Man(b1-4)GlcNAc(b1-4)GlcNAc
# Method in brief: as §1
# [13] = target: Gal(b1-4)GlcNAc(b1-3)Gal(b1-3)GlcNAc
# Method in brief: as §1
# [14] = target: Gal(b1-4)GlcNAc(b1-3)Gal(b1-4)Glc
# Method in brief: as §1
# [15] = target: Gal(b1-4)GlcNAc(b1-3)Gal(b1-4)GlcNAc
# Method in brief: as §1
# [16] = target: Gal(b1-4)GlcNAc(b1-3)Gal(b1-4)GlcNAc(b1-3)Gal(b1-4)GlcNAc
# Method in brief: as §1
# [17] = target: Gal(b1-4)GlcNAc(b1-3)Gal(b1-4)[Fuc(a1-3)]GlcNAc(b1-3)Gal(b1-4)[Fuc(a1-3)]GlcNAc
# Method in brief: as §1
# [18] = target: Gal(b1-4)GlcNAc(b1-3)GalNAc
# Method in brief: as §1
# [19] = target: Gal(b1-4)GlcNAc(b1-3)[Gal(b1-4)GlcNAc(b1-6)]Gal(b1-4)GlcNAc
# Method in brief: as §1
# [20] = target: Gal(b1-4)GlcNAc(b1-3)[GlcNAc(b1-6)]Gal(b1-4)GlcNAc
# Method in brief: as §1
# [21] = target: Gal(b1-4)GlcNAc(b1-6)Gal(b1-4)GlcNAc
# Method in brief: as §1
# [22] = target: Gal(b1-4)GlcNAc(b1-6)Gal(b1-4)GlcNAc(b1-6)GalNAc
# Method in brief: as §1
# [23] = target: Gal(b1-4)GlcNAc(b1-6)GalNAc
# Method in brief: as §1
# [24] = target: Gal(b1-4)GlcNAc(b1-6)[Gal(b1-3)]GalNAc
# Method in brief: as §1
# [25] = target: Gal3S(b1-3)GalNAc
# Method in brief: as §1
# [26] = target: Gal3S(b1-3)GlcNAc
# Method in brief: as §1
# [27] = target: Gal3S(b1-3)[Fuc(a1-4)]GlcNAc
# Method in brief: as §1
# [28] = target: Gal3S(b1-4)Glc
# Method in brief: as §1
# [29] = target: Gal3S(b1-4)Glc6S
# Method in brief: as §1
# [30] = target: Gal3S(b1-4)GlcNAc
# Method in brief: as §1
# [31] = target: Gal3S(b1-4)GlcNAc6S
# Method in brief: as §1
# [32] = target: Gal3S(b1-4)[Fuc(a1-3)]Glc
# Method in brief: as §1
# [33] = target: Gal3S4S(b1-4)GlcNAc
# Method in brief: as §1
# [34] = target: Gal3S6S(b1-4)GlcNAc
# Method in brief: as §1
# [35] = target: Gal3S6S(b1-4)GlcNAc6S
# Method in brief: as §1
# [36] = target: Gal4S(b1-4)GlcNAc
# Method in brief: as §1
# [37] = target: Gal4S6S(b1-4)GlcNAc
# Method in brief: as §1
# [38] = target: Gal6S(b1-4)Glc
# Method in brief: as §1
# [39] = target: Gal6S(b1-4)Glc6S
# Method in brief: as §1
# [40] = target: Gal6S(b1-4)GlcNAc
# Method in brief: as §1
# [41] = target: Gal6S(b1-4)GlcNAc6S
# Method in brief: as §1
# [42] = target: GalNAc(a1-3)Gal
# Method in brief: as §1
# [43] = target: GalNAc(a1-3)GalNAc
# Method in brief: as §1
# [44] = target: GalNAc(b1-3)Gal
# Method in brief: as §1
# [45] = target: GalNAc(b1-3)Gal(a1-4)Gal(b1-4)GlcNAc
# Method in brief: as §1
# [46] = target: GalNAc(b1-3)GalNAc
# Method in brief: as §1
# [47] = target: GalNAc(b1-4)GlcNAc
# Method in brief: as §1
# [48] = target: Glc(a1-4)Glc
# Method in brief: as §1
# [49] = target: Glc(a1-6)Glc(a1-6)Glc
# Method in brief: as §1
# [50] = target: Glc(b1-4)Glc
# Method in brief: as §1
# [51] = target: Glc(b1-6)Glc
# Method in brief: as §1
# [52] = target: GlcA(b1-3)Gal
# Method in brief: as §1
# [53] = target: GlcA(b1-3)GlcNAc
# Method in brief: as §1
# [54] = target: GlcA(b1-6)Gal
# Method in brief: as §1
# [55] = target: GlcNAc(a1-3)Gal(b1-4)GlcNAc
# Method in brief: as §1
# [56] = target: GlcNAc(a1-6)Gal(b1-4)GlcNAc
# Method in brief: as §1
# [57] = target: GlcNAc(b1-2)Gal(b1-3)GalNAc
# Method in brief: as §1
# [58] = target: GlcNAc(b1-2)Man(a1-3)[GlcNAc(b1-2)Man(a1-6)]Man(b1-4)GlcNAc(b1-4)GlcNAc
# Method in brief: as §1
# [59] = target: GlcNAc(b1-3)Gal
# Method in brief: as §1
# [60] = target: GlcNAc(b1-3)Gal(b1-3)GalNAc
# Method in brief: as §1
# [61] = target: GlcNAc(b1-3)Gal(b1-4)Glc
# Method in brief: as §1
# [62] = target: GlcNAc(b1-3)Gal(b1-4)GlcNAc
# Method in brief: as §1
# [63] = target: GlcNAc(b1-3)Gal(b1-4)GlcNAc(b1-3)Gal(b1-4)GlcNAc
# Method in brief: as §1
# [64] = target: GlcNAc(b1-3)GalNAc
# Method in brief: as §1
# [65] = target: GlcNAc(b1-3)Man
# Method in brief: as §1
# [66] = target: GlcNAc(b1-3)[GlcNAc(b1-4)][GlcNAc(b1-6)]GlcNAc
# Method in brief: as §1
# [67] = target: GlcNAc(b1-3)[GlcNAc(b1-6)]Gal(b1-4)GlcNAc
# Method in brief: as §1
# [68] = target: GlcNAc(b1-3)[GlcNAc(b1-6)]GalNAc
# Method in brief: as §1
# [69] = target: GlcNAc(b1-4)Gal(b1-4)GlcNAc
# Method in brief: as §1
# [70] = target: GlcNAc(b1-4)GlcNAc
# Method in brief: as §1
# [71] = target: GlcNAc(b1-4)GlcNAc(b1-4)GlcNAc
# Method in brief: as §1
# [72] = target: GlcNAc(b1-4)GlcNAc(b1-4)GlcNAc(b1-4)GlcNAc(b1-4)GlcNAc
# Method in brief: as §1
# [73] = target: GlcNAc(b1-4)GlcNAc(b1-4)GlcNAc(b1-4)GlcNAc(b1-4)GlcNAc(b1-4)GlcNAc
# Method in brief: as §1
# [74] = target: GlcNAc(b1-4)[GlcNAc(b1-6)]GalNAc
# Method in brief: as §1
# [75] = target: GlcNAc(b1-6)Gal(b1-4)GlcNAc
# Method in brief: as §1
binder,measurement,setting,value
B1,glycan array binding signal (z-score),[1],-0.491
same,glycan array binding signal (z-score),[2],-0.588
same,glycan array binding signal (z-score),[3],-0.028
same,glycan array binding signal (z-score),[4],-0.379
same,glycan array binding signal (z-score),[5],-0.246
same,glycan array binding signal (z-score),[6],-0.868
same,glycan array binding signal (z-score),[7],-1.03
same,glycan array binding signal (z-score),[8],-0.817
same,glycan array binding signal (z-score),[9],0.405
same,glycan array binding signal (z-score),[10],-0.73
same,glycan array binding signal (z-score),[11],-0.277
same,glycan array binding signal (z-score),[12],-0.803
same,glycan array binding signal (z-score),[13],-0.507
same,glycan array binding signal (z-score),[14],0.383
same,glycan array binding signal (z-score),[15],3.1
same,glycan array binding signal (z-score),[16],0.385
same,glycan array binding signal (z-score),[17],-0.676
same,glycan array binding signal (z-score),[18],-0.999
same,glycan array binding signal (z-score),[19],1.12
same,glycan array binding signal (z-score),[20],-0.419
same,glycan array binding signal (z-score),[21],-0.245
same,glycan array binding signal (z-score),[22],1.53
same,glycan array binding signal (z-score),[23],-0.383
same,glycan array binding signal (z-score),[24],-0.813
same,glycan array binding signal (z-score),[25],1.84
same,glycan array binding signal (z-score),[26],1
same,glycan array binding signal (z-score),[27],0.815
same,glycan array binding signal (z-score),[28],0.892
same,glycan array binding signal (z-score),[29],2.36
same,glycan array binding signal (z-score),[30],0.78
same,glycan array binding signal (z-score),[31],1.93
same,glycan array binding signal (z-score),[32],2
same,glycan array binding signal (z-score),[33],1.54
same,glycan array binding signal (z-score),[34],2.25
same,glycan array binding signal (z-score),[35],3.32
same,glycan array binding signal (z-score),[36],1.91
same,glycan array binding signal (z-score),[37],1.38
same,glycan array binding signal (z-score),[38],1.12
same,glycan array binding signal (z-score),[39],3.96
same,glycan array binding signal (z-score),[40],0.94
same,glycan array binding signal (z-score),[41],1.67
same,glycan array binding signal (z-score),[42],-0.674
same,glycan array binding signal (z-score),[43],-0.685
same,glycan array binding signal (z-score),[44],-0.462
same,glycan array binding signal (z-score),[45],-0.885
same,glycan array binding signal (z-score),[46],-0.721
same,glycan array binding signal (z-score),[47],-0.457
same,glycan array binding signal (z-score),[48],-0.583
same,glycan array binding signal (z-score),[49],-0.774
same,glycan array binding signal (z-score),[50],-0.825
same,glycan array binding signal (z-score),[51],0.27
same,glycan array binding signal (z-score),[52],-0.179
same,glycan array binding signal (z-score),[53],-0.534
same,glycan array binding signal (z-score),[54],-0.166
same,glycan array binding signal (z-score),[55],-0.557
same,glycan array binding signal (z-score),[56],-0.518
same,glycan array binding signal (z-score),[57],-0.928
same,glycan array binding signal (z-score),[58],-0.653
same,glycan array binding signal (z-score),[59],-0.71
same,glycan array binding signal (z-score),[60],-0.31
same,glycan array binding signal (z-score),[61],-0.831
same,glycan array binding signal (z-score),[62],-0.548
same,glycan array binding signal (z-score),[63],-0.303
same,glycan array binding signal (z-score),[64],-0.265
same,glycan array binding signal (z-score),[65],0.054
same,glycan array binding signal (z-score),[66],-0.767
same,glycan array binding signal (z-score),[67],-0.364
same,glycan array binding signal (z-score),[68],-0.694
same,glycan array binding signal (z-score),[69],-0.439
same,glycan array binding signal (z-score),[70],-0.562
same,glycan array binding signal (z-score),[71],3.19
same,glycan array binding signal (z-score),[72],0.258
same,glycan array binding signal (z-score),[73],0.473
same,glycan array binding signal (z-score),[74],-0.577
same,glycan array binding signal (z-score),[75],-0.564
